Measured values as given in PubChem BioAssay AID1745853 (National Center for Advancing Translational Sciences (NCATS), 2022).
This is one part of the list. Further columns of the screen follow, without active or inactive calls.

How the values were obtained:
Experiment in all cases: Primary Screen for Target Class Profiling of Small Molecule Inhibitors of Methyltransferases
[1] = biological target: Glycine N-methyltransferase (Homo sapiens) (UniProt Q14749); conditions: purified enzyme, MTase-Glo SAH luminescence; measured here: GNMT inhibition; at 40 µM; stronger effect = lower value
In short: (§1)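 Each enzyme was reacted with SAM and its substrate, with compounds tested once at 40 uM; SAH formed was read by MTase-Glo luminescence.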

[2] = biological target: Guanidinoacetate N-methyltransferase (Homo sapiens) (UniProt Q14353); conditions: purified enzyme, MTase-Glo SAH luminescence; measured here: GAMT inhibition; at 40 µM; stronger effect = lower value
In short: as §1

[3] = biological target: Histamine N-methyltransferase (Homo sapiens) (UniProt P50135); conditions: purified enzyme, MTase-Glo SAH luminescence; measured here: HNMT inhibition; at 40 µM; stronger effect = lower value
In short: as §1

[4] = biological target: Nicotinamide N-methyltransferase (Homo sapiens) (UniProt P40261); conditions: purified enzyme, MTase-Glo SAH luminescence; measured here: NNMT inhibition; at 40 µM; stronger effect = lower value
In short: as §1

[5] = biological target: Phenylethanolamine N-methyltransferase (Homo sapiens) (UniProt P11086); conditions: purified enzyme, MTase-Glo SAH luminescence; measured here: PNMT inhibition; at 40 µM; stronger effect = lower value
In short: as §1
% is set by controls: 0 for no effect and ±100 for the full control effect.

Row | SMILES | activity change, negative = inhibition [1] | activity change, negative = inhibition [2] | activity change, negative = inhibition [3] | activity change, negative = inhibition [4] | activity change, negative = inhibition [5]
1 | O=c1c2ccccc2n2c(-c3cccc(Cl)c3)nnc2n1Cc1ccc(F)cc1 | -3.71% | 2.61% | 3.76% | -2.75% | 1.48%
2 | COc1cc2c(c(OC)c1OC)-c1ccc(OC)c(=O)cc1[C@@H](NC(C)=O)CC2 | -11.2% | 2.38% | -2.06% | -5.57% | 8.54%
3 | C[C@H]1[C@H](/C=C/c2ccc(-c3ccccc3C#N)cn2)[C@@H]2[C@@H](C)OC(=O)[C@@H]2C[C@@H]1C | -6.9% | -6.99% | 10.5% | -41.9% | -1.7%
4 | Cc1ccc(C(=O)Cn2nc3n(CCC(C)C)c(=O)c4ccc(C(=O)NCC(C)C)cc4n3c2=O)cc1 | 3.72% | 1.65% | 2.24% | -0.887% | 4.61%
5 | CCCn1c(=O)c2ccc(Cl)cc2n2c(SCC(=O)Nc3cccc(Cl)c3)nnc12 | -2.69% | -12.2% | 11.9% | -4.91% | -4.57%
6 | CCCn1c(=O)c2ccc(C(=O)NC3CCCCC3)cc2n2c(=O)n(Cc3ccc(F)cc3)nc12 | 2.44% | 0% | 5.22% | 6.27% | 3.3%
7 | CNC(=O)c1ccc(N2C(=S)N(c3cnc(C#N)c(C(F)(F)F)c3)C(=O)C23CCC3)cc1F | 0.014% | -8.48% | -3.26% | -19.3% | -12.4%
8 | CC(C)OCCCn1c(=O)c2cc(Cl)ccc2n2c(SCc3cccc(F)c3)nnc12 | -10.7% | -0.621% | -0.459% | -15.3% | -5.07%
9 | CCC(C)NC(=O)c1ccc2c(=O)n(C(C)C)c3nn(Cc4ccc(F)cc4Cl)c(=O)n3c2c1 (stereo not given) | -0.516% | 4.73% | 0.352% | 0.621% | 0.142%
10 | O=C(CCc1nnc2n(Cc3ccc(Cl)cc3)c(=O)c3ccccc3n12)N1CCN(C2CCCCC2)CC1 | -7% | 1.17% | -10.7% | 0.945% | -0.349%
11 | COc1cccc(CN2CCC3(CC2)C(C(=O)O)CC(=O)N3C)c1OC (stereo not given) | -6.46% | -12.2% | -4.38% | -16.2% | -18.4%
12 | Cc1ccc(C)c(S(=O)(=O)c2nnn3c2nc(NCCC(C)C)c2ccccc23)c1 | -1.09% | -1.42% | -2.53% | -6.66% | -5.37%
13 | Cn1c(=O)c2ccc(C(=O)NC3CCCCC3)cc2n2c(SCc3ccc(F)cc3)nnc12 | 1.82% | 1.83% | 1.99% | 1.79% | 5.2%
14 | CCOc1nc(NC(=O)Cc2cc(OC)ccc2OC)cc(N)c1C#N | 0.525% | -4.28% | 8.36% | -35.5% | 2.45%
15 | CCOC(=O)[C@@H]1[C@H]2c3ccccc3N(CCOC)C(=O)[C@H]2N(C(=O)c2ccccc2)[C@@H]1c1ccccc1 | -2.15% | -6.14% | -4.15% | 6.58% | 0.346%
16 | CCS(=O)(=O)N1C[C@@H](C(=O)NCc2ccc(C)o2)[C@H](c2ccncc2)C1 | -8.28% | -10.2% | -4.01% | -14.1% | -9.21%
17 | CCc1ccc(N2C(=O)c3nc4ccccc4n3CC2(C)C(=O)NC2CCCC2)cc1 (stereo not given) | -3.57% | 4.06% | -2.21% | -1.06% | -3.74%
18 | CCc1cccc(NC(=O)Cn2nc3n(CC(C)C)c(=O)c4ccc(C(=O)NC(C)CC)cc4n3c2=O)c1 (stereo not given) | -0.926% | 0% | 3.33% | -0.417% | 4.7%
19 | CCc1ccccc1N1C(=O)c2c(C(=O)OC)ncn2CC1(C)C(=O)NC1CCCCCC1 (stereo not given) | 0.95% | 1.73% | -4.56% | 5.74% | 0.856%
20 | CC1(C)CC[C@]2(C(=O)O[C@@H]3O[C@H](CO)[C@@H](O)[C@H](O)[C@H]3O)CC[C@]3(C)C(=CCC4[C@@]5(C)C[C@@H](O)[C@H](O)C(CO)(CO)C5CC[C@]43C)C2[C@@H]1O (stereo not given in full) | 1.48% | 4.83% | 2.21% | -9.05% | 2.93%
21 | Cn1c(=O)n(C)c2cc(S(=O)(=O)Nc3ccc(N4CCOCC4)c(Cl)c3)ccc21 | -7.47% | 0.805% | -23.5% | 8.55% | 0.995%
22 | CN(Cc1cc(C2CC2)on1)Cc1nnc(C2CC(N)C2)n1C1CC1 (stereo not given) | -5.88% | -9.93% | -4.04% | -16.1% | 0.925%
23 | O=C(N1CC(Oc2ccc(-c3noc(-c4ccccc4)n3)cc2)C1)C1(c2ccccc2)CC1 | -3.36% | -3.8% | -1.46% | -9.84% | -8.03%
24 | O=C(CCC1CCCC1)N1CCCC1c1nc(CCOCC2CC2)no1 (stereo not given) | -2.97% | -0.808% | 0.3% | -11.5% | -3.09%
25 | COc1ccc(OC)c(CNC(=O)CCCn2ccc3cc(S(=O)(=O)N4CCCC4)ccc32)c1 | 8.46% | 0% | 7.96% | 7.14% | 3.87%
26 | CC(CNC(=O)CCc1nnc2n(Cc3ccc(Cl)cc3)c(=O)c3ccccc3n12)c1ccccc1 (stereo not given) | -14.3% | -5.84% | -8.92% | -26.2% | -2.46%
27 | Cc1nc(CCNC(=O)c2cnc(-c3cccnc3)nc2)cc(=O)[nH]1 | -1.44% | -1.96% | 0.506% | -9.3% | -4.25%
28 | CC(C)CCN1C(=O)c2cc3occc3n2CC1(C)C(=O)NC1CCCC(C)C1C (stereo not given) | -7.31% | -5.07% | 3.65% | -7.01% | -7.45%
29 | CCN1C(=O)c2cc(C(=O)Nc3ccccc3C)nn2CC1(C)C(=O)NC1CCCC1 (stereo not given) | -6.84% | -1.29% | -10.4% | -4.85% | -1.93%
30 | CCc1c(-c2ccccc2)c(-c2ccccc2)nn1-c1ccccc1-c1cccc(OCC(=O)O)c1 | -5.24% | 16.2% | 7.95% | -67.7% | 4.22%
